In the test the target is T1, MRP3-derived peptide IV (PepIV) (human, also: conjugated to BSA, biotinylated, site not given here).
T1 construct: Same peptide used as BSA conjugate (ELISA) and as biotinylated peptide (SPR)
T1 peptide: KIRSPQSFFDTTPSGRI
The experiment in a line: SPR, BIAcore, biotinylated peptide on chip. Background: In SPR one partner is held on a chip, and binding of the other changes the refractive index at the surface.

No end group written: not given here.

B1: PepIV-17 scFv (scFv)
scFv: QVQLQQSGPGLVKPSQTLSLTCAISGDSVSTNSAAWNWIRQSPSRGLEWLGRTYYRSKWYNDYAVSVKSRITISPDTSKNHFSLQLNSVTPEDTAVYYCAREGNDAFDIWGQGTMVTVSSGGGGSGGGGSGGGGSQSALTQPPSASGTPGQRVTIS[about 80 residues cut from this listing]FGGGTKLTVLGQPKATPS
notes: not shown: Myc and hexahistidine tags from the pET 22(+) vector
Take B1: the binding result is listed as “binds”.

The record behind these values is patent US20100290984A1 (DUKE UNIVERSITY, published 2010).
